# Reference: PubChem BioAssay AID488896 (Broad Institute, 2010)
# Among all 320,000 compounds or so, about 3,100 (0.97%) were called active. Inconclusive means that the source gave no clear call. Such entries were picked first, then a sample of the others.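 How the source made its calls: active means mean replicate inhibition of at least 70% and a set share of replicates each scoring 70 or more; inconclusive means meets just one of the two criteria; inactive means fails both criteria.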
# Molecular target: Scavenger receptor class B member 1 (Mus musculus) (UniProt Q61009)
# Assay: inhibitors of SR-BI mediated HDL lipid uptake, primary screen, ldlA[mSR-BI] cells, fluorescence, single point (AID 488896);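 further: 0% = median of neutral control wells and 100% = median of positive control wells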
# Conditions: ldlA[mSR-BI] CHO cells, DiI-HDL uptake fluorescence, 3 h; at 12.5 µM; active compounds read high
# Chain of UniProt Q61009 (Q61009 whole entry, looked up): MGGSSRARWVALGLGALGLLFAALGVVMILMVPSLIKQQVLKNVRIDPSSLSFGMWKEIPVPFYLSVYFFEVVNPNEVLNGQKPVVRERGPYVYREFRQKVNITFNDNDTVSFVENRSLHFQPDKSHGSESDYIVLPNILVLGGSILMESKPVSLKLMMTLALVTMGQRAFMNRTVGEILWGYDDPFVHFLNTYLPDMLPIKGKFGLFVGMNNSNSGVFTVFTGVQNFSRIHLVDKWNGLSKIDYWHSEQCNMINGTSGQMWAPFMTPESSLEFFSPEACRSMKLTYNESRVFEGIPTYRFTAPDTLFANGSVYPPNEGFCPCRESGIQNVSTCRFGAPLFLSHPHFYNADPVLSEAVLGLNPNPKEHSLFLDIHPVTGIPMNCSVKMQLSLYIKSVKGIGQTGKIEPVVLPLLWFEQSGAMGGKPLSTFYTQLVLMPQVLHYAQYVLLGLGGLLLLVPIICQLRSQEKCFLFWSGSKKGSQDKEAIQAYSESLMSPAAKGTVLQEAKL
row,Compound,inhibition
1,CCOc1ccc(Nc2nc(N3CCCC3)nc(N3CCN(c4ccc(OC)cc4)CC3)n2)cc1,inconclusive: 71.2%
2,O=C(/C=C/c1ccccc1)NC(=S)Nc1ccc(N2CCOCC2)c(Cl)c1,inactive: 15.2%
3,NS(=O)(=O)c1ccc(N/N=C/C=C/c2ccccc2[N+](=O)[O-])cc1,inactive: 48.4%
4,NC(=S)N/N=C/c1ccc(-c2ccc(Cl)c(Cl)c2)o1,active: 85.5%
5,C=CCN1C(=O)C(CC(=O)Nc2ccccc2F)S/C1=N\c1nccs1 (configuration not stated),active: 84.5%
6,COc1ccc(NC(=O)NCc2cccn2C)c(OC)c1,active: 85.2%
7,Cc1nc(C(=O)Nc2ccccc2)sc1C(=O)Nc1ccccc1,inconclusive: 71.3%
8,CCOc1ccc(S(=O)(=O)Nc2ccc(S(=O)(=O)N3CCCCC3)cc2)cc1,inactive: -13.9%
9,O=C(CSCc1ccccc1Br)NC1CC1,inactive: 3.56%
10,Cc1ccc(NC2=NC3(CCCC3)N=C(N)N2)c(C)c1,inactive: 2.02%
11,Cc1ccc(C(=O)n2c3ccccc3c3ccccc32)cc1,active: 74.1%
12,O=C(COC(=O)CCN1C(=O)c2ccccc2C1=O)Nc1ccc(S(=O)(=O)N2CCCC2)cc1,inactive: -22.9%
13,CCc1sc(C(=O)Nc2cccc(-n3cnnn3)c2)cc1C,inconclusive: 72.7%
14,Cc1c(Nc2nc3ccccc3nc2N2CCN(c3ccccc3)CC2)c(=O)n(-c2ccccc2)n1C,inconclusive: 71.9%
15,O=C(NC1CCCCC1)N1CCN(c2nc(-c3ccccc3)cs2)CC1,inactive: 18.6%
16,O=C(NNC1=C(C(=O)C(F)(F)F)CCC1)c1cccc(Cl)c1,active: 80.2%
17,COc1ccc(-c2cc(-c3ccc(OC)cc3)c(C#N)c(SC)n2)cc1,active: 79.9%
18,CCCCCCCCCCOC(=O)Cn1c(COc2ccccc2OC)[n+](C)c2ccccc21,inactive: 9.44%
19,Cn1nnnc1SCCOc1ccc(C#N)cc1,inactive: 15.3%

row,Compound,inhibition
1,C/C(=N/NC(N)=S)c1ccc(Br)s1,inconclusive: 82.5%
2,Cc1cc(NC(=O)Nc2ccccc2F)ccc1Br,inconclusive: 70.6%
3,Cc1cccc(NC(=S)NC(C)(C)CC(C)(C)C)c1,inconclusive: 74.8%
4,CCOc1cc(NC(=O)C2CCCCC2)c(OCC)cc1NC(=O)c1ccccn1,inconclusive: 70.6%
5,Cc1nn(-c2ccccc2)nc1C(=O)Nc1ccc2[nH]ncc2c1,inactive: -1.99%
6,CCc1nnc(NC(=O)CSc2nc(-c3ccccc3)cc(-c3ccc(F)cc3)c2C#N)s1,inactive: 44.2%
7,COc1ccc(-c2cc(C(=O)N/N=C/c3ccc(OC)c(COCC(F)(F)C(F)F)c3)c3ccccc3n2)c(OC)c1,active: 79.5%
8,Cc1ccc(NC(=O)Cn2nc(C(=O)Nc3ccc(C)cc3)ccc2=O)cc1,inactive: 6%
9,O=C(NC(NC(=S)Nc1ccccc1)C(Cl)(Cl)Cl)c1cccc(Cl)c1 (configuration not stated),inconclusive: 70.5%
10,Cc1c(OC(C)C(=O)NCCN2CCOCC2)ccc2c(-c3ccccc3)cc(=O)oc12 (configuration not stated),inconclusive: 72.2%
11,NC(=O)COC(=O)c1oc2ccccc2c1CSc1ccc(Cl)cc1,inactive: 4.78%
12,Fc1ccc(-c2csc(Nc3ccccn3)n2)cc1,inactive: -1.85%
13,CC(=O)c1c(C(C)=O)c(C)n(-c2nc(-c3ccc(Br)cc3)c(C)s2)c1C,inconclusive: 70.1%
14,Cc1ccc2nc(C)cc(OCC(=O)O)c2c1,inactive: -43%
15,Cc1onc(-c2ccccc2)c1C(=O)NC(=S)NNC(=O)c1ccc(O)cc1O,active: 85.1%
16,CC(C)Cn1c(N)c(C(=O)CSc2nnc(-c3ccco3)n2C)c(=O)n(C)c1=O,inactive: 4.91%
17,CCCOc1ccc(/C=C/C(=O)Nc2ccc([N+](=O)[O-])cc2C)cc1OC,inconclusive: 71%
18,COc1ccc(Cl)cc1NC(=O)c1nnn(CC(=O)Nc2ccc3c(c2)OCO3)c1N,inactive: 8.88%
19,COc1cc(C(=O)NCC2CCCO2)ccc1OCc1ccccc1Cl (configuration not stated),inconclusive: 74.1%

row,Compound,inhibition
1,CCOC(=O)CCC(=O)Nc1ncnc2c1C(c1ccccc1)c1c(ccc3ccccc13)O2 (configuration not stated),inconclusive: 72.7%
2,COc1cc(NC(=O)c2ccccc2Cl)ccc1NC(=O)c1cccs1,inactive: 66.6%
3,COc1ccc(-c2ccc3oc(-c4ccc(OC)cc4)c(C#CCO)c3c2)cc1,inconclusive: 70.9%
4,CC(/C=C/c1ccccc1)=N\NC(N)=S,active: 76.7%
5,CCCCNC(=S)N/N=C1\C(=O)c2cccc3cccc1c23,inactive: -11%
6,CCc1noc(C)c1C(=O)N(Cc1ccccc1)c1c(N)n(CCOC)c(=O)[nH]c1=O,inactive: -30.5%
7,Nc1c(C(=O)NCC2CCCO2)c2nc3ccccc3nc2n1-c1ccccc1 (configuration not stated),inactive: 14.2%
8,CS(=O)(=O)N1CCc2cc(-c3csc(NC(=O)Cc4ccccc4)n3)ccc21,inconclusive: 74.8%
9,CN(Cc1ccc(C(C)(C)C)cc1)C(=O)C1CCN(C(=O)Nc2ccccc2)CC1,inconclusive: 75.4%
10,O=C(NC1CC1)c1ccc2c(c1)N(Cc1ccc(Cl)cc1)CCS2,inconclusive: 70.7%
11,O=C(COC(=O)CC1Sc2ccccc2NC1=O)NCc1ccccc1 (configuration not stated),inactive: -3.39%
12,COc1cc2[nH]c(C(=O)N3CCc4ccccc4C3)cc2c(OC)c1OC,inconclusive: 71.1%
13,CCN(CC)C(=O)CSc1nnc(-c2ccccn2)n1-c1ccccc1OC,inactive: 9.91%
14,COc1ccc(/C=N/NC(=O)c2ccc3c(c2)OCCO3)c(OC)c1,inconclusive: 73.5%
15,Cc1cccc(-n2c(C)cc(C=C(C#N)C#N)c2C)c1,inactive: 15.1%
16,Cc1ccc(-c2nn3c(C)nnc3s2)cc1NC(=O)c1ccc(-c2ccc(Cl)cc2Cl)o1,active: 79.5%
17,CN(Cc1ccncn1)C(=O)C1CCC(=O)N(Cc2cccc(C(F)(F)F)c2)C1 (configuration not stated),inactive: 2.91%
18,CCOC(=O)C1=C(C)N=c2s/c(=C/c3cccc([N+](=O)[O-])c3O)c(=O)n2C1c1cc(OC)c(OC)c(OC)c1 (configuration not stated),inactive: -4.17%
19,CC(C)CNC(=O)c1cccc(NC(=O)c2ccc(Cl)c([N+](=O)[O-])c2)c1,inconclusive: 70.2%
